These results are taken from the supplement of paper PMC8792480.

Molecules are shown by their SMILES. This is one part of the list. Single values are uncertain, as repeats are few or missing.

Assay [1] concerns NCI-H460. In words: cell-surface PD-L1 MFI ratio relative to radiation alone (isotype-subtracted); higher = higher PD-L1 surface expression. The settings on record: inducer: radiation 8 Gy; 10 µM; 24 h. Here is the method: (§1)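 A549 and H460 NSCLC cells were treated with each library drug at 10 uM, then with radiation (8 Gy) or cisplatin (4 uM), and incubated for 24 h. Cell-surface PD-L1 was measured by flow cytometry as an MFI ratio: (MFI drug+inducer - MFI isotype)/(MFI inducer alone - MFI isotype). Hits were defined as ratio < 0.75.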

Assay [2] has as its system NCI-H460. Put plainly: cell-surface PD-L1 MFI ratio relative to cisplatin alone (isotype-subtracted); higher = higher PD-L1 surface expression. The settings on record: inducer: cisplatin 4 uM; 10 µM; 24 h. Here is the method: as §1
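For cell-surface PD-L1 MFI ratio relative to radiation alone (isotype-subtracted) in this document: surface PD-L1 on NSCLC cells stained with a PE-labelled anti-human PD-L1 antibody before flow cytometry, screening a library of roughly two hundred mostly kinase and epigenetic inhibitors.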

In the case of `CC(C)(C)C[C@@H]1N[C@@H](C(=O)N[C@H]2CC[C@H](O)CC2)[C@H](c2cccc(Cl)c2F)[C@]12C(=O)Nc1cc(Cl)ccc12`, the “cell-surface PD-L1 MFI ratio” value is inactive: 1.1 in assay [1] and active: 0.63 in assay [2].
For `CC(C)S(=O)(=O)c1ccc2nccc(Nc3ccc4scnc4c3)c2c1`, in that order: inactive: 1.33 and inactive: 1.34.
For `CN(C)Cc1cccc(N=C(c2ccccc2)c2c(O)[nH]c3cc(C(=O)N(C)C)ccc23)c1`, in that order: inactive: 1.26 and inactive: 0.944.
For `CN1CCN(c2nc(C3=C(c4c[nH]c5ccccc45)C(=O)NC3=O)c3ccccc3n2)CC1` [Sotrastaurin], in that order: inactive: 2.99 and inactive: 1.89.
As for `CCCCCCCCCCCCCC(=S)NCCCC[C@H](NC(=O)OCc1ccccc1)C(=O)Nc1ccccc1` [Thiomyristoyl], the “cell-surface PD-L1 MFI ratio” value in assay [1] is inactive: 1.07; in assay [2], active: 0.523.
`CCCCCCCCCCCCCCCCn1cc[n+](Cc2ccccc2)c1C`: the “cell-surface PD-L1 MFI ratio” value is active: 0.738 in assay [1] and inactive: 1.02 in assay [2].
For `CNC(=O)c1ccccc1Sc1ccc2c(/C=C/c3ccccn3)n[nH]c2c1` [Axitinib], in that order: inactive: 1.39 and inactive: 2.14.
On to `COc1ccc(-c2cc3nccn3c(Nc3ncccc3C(N)=O)n2)cc1OC`, for which the “cell-surface PD-L1 MFI ratio” value was inactive: 1.16 in assay [1] and inactive: 1 in assay [2].
For `CC[C@@H](N)CNc1ccnc(-c2cc(-c3cnn(C)c3)ccc2O)n1`, in that order: inactive: 1.1 and inactive: 0.896.
For `O=C1[C@H](Cc2ccc(O)cc2)N2C(=O)CCN(C(=O)NCc3ccccc3)[C@H]2CN1Cc1cccc2ccccc12`, in that order: inactive: 0.935 and inactive: 1.51.
For the compound `Cc1nc(NC(=O)N2CCC[C@H]2C(N)=O)sc1-c1ccnc(C(C)(C)C(F)(F)F)c1` [Alpelisib (BYL719)], the “cell-surface PD-L1 MFI ratio” value in assay [1] was active: 0.69; in assay [2], active: 0.474.
